# Out of some 120,000 compounds screened, about 5,300 (4.4%) were called active. Inconclusive results, whose numbers are uncertain, are shown with a selection of clear calls. Calls follow the shape of the dose curve; as a rule, active = well fitted inhibition curve with a large enough effect; inconclusive = small, poorly fitted or top-dose-only effect; inactive = no such curve, though single readings can be large or run the other way. Potencies of inconclusive entries are doubtful fits and often do not repeat.
# Assay: qHTS Primary assay for Inhibitors of Plasmodium falciparum Dd2 growth in vitro; also: nearly all actives have a fitted effect of over 65% in size
# Conditions: P. falciparum Dd2 growth, SYBR Green, 72 h; series mostly up to 28.9 µM
# Method in brief: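 Infected erythrocytes (Dd2, 0.3% parasitemia, 2.5% hematocrit final) are added to compound in RPMI-1640/Albumax II medium, grown 72 h at 37C in low oxygen, then lysed with saponin/Triton-X containing SYBR Green and read by fluorescence.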
# Potency is read from the fitted curve at half-maximal effect; tags tell the direction and shape of the fitted curve.
row,SMILES,Potency
1,COc1cc(Cl)cc(CN2CCC3(CCCNC3)C2)c1OC (centres undefined),active: 8.91 µM
2,O=C(NC[C@H]1OC[C@@H](NC2CCCC2)[C@@H]1O)Nc1ccccc1,inactive
3,CCC(=O)C1=C(c2ccccc2)N(C(=O)CC)n2c(nnc2C2CCCCC2)S1,"inconclusive: 1.26 µM [inhibitor, single point]"
4,CC(=O)N1CCC(C2CCN(Cc3ccc(C)cn3)C2)CC1 (centres undefined),inactive
5,CN(c1ccccc1)c1ccc2nnc(-c3cc(C(=O)Nc4ccccn4)ccn3)n2n1,"inconclusive: 14.1 µM [inhibitor, single point]"
6,COc1ccc(OC2CNC2)cc1,"inconclusive: 8.91 µM [inhibitor, partial curve, poor fit]"
7,CCn1ccc(C(=O)N2C[C@@H](Oc3ccccc3)C[C@@H]2C(=O)NCCOC)n1,inactive
8,Cc1ccc(C)c(Oc2c(C(F)(F)F)oc3c(CN4CCN(C)CC4)c(O)ccc3c2=O)c1,active: 0.501 µM
9,CC(=O)Nc1ccc(CN2CC(N3CCc4ccccc43)C2)cc1,inactive
10,COc1ccc(N2CC(c3noc(-c4cc(OC)c(OC)c(OC)c4)n3)CC2=O)cc1 (centres undefined),"inconclusive: 10 µM [inhibitor, partial curve, poor fit]"
11,CCOc1ccccc1NC(=O)C(=O)NCC(c1cccnc1)N1CCN(c2ccccc2)CC1 (centres undefined),"inconclusive: 17.8 µM [inhibitor, single point]"
12,O=C(Cc1cccc(F)c1)N1CC(c2nnc(-c3ccncc3)o2)C2(CCOCC2)C1 (centres undefined),inactive
13,O=C(NCc1ccc(Cl)cc1)C1Cn2cccc2C(=O)N1Cc1cccnc1 (centres undefined),"inconclusive: 12.6 µM [inhibitor, partial curve, poor fit]"
14,CN(C)C(=O)N1CCN(C2CCNCC2)C(=O)C1,inactive
15,COc1ccc(CNC[C@H]2O[C@H](Cc3cc(-c4ccc(OC)cc4)on3)CC[C@@H]2O)cc1,"inconclusive: 0.126 µM [inhibitor, full curve, poor fit]"
16,Cn1ccc(C(=O)N2CCC3(CC2)OC(=O)N(Cc2ccccc2C#N)C3(C)c2ccccc2)n1 (centres undefined),"inconclusive: 1 µM [inhibitor, partial curve, poor fit]"
17,CC1=C[C@@H](CN(C)Cc2cccnc2)[C@H](C(C)C)C[C@H]1Cc1nnc(-c2ccc([N+](=O)[O-])cc2)o1,active: 4.47 µM
18,CCC(C)NC(=O)CC1=CSC2=NC(C)=C(C(=O)OC)C(c3cccc([N+](=O)[O-])c3)N12 (centres undefined),inactive
19,COc1ccc(-c2cc([C@H]3CN4CC[C@H]3C[C@@H]4CNS(=O)(=O)c3cccs3)n(C)n2)cc1OC,"inconclusive: 3.98 µM [inhibitor, single point]"
20,C#C[C@H]1CN2CC[C@H]1C[C@@H]2CNC(=O)c1ccc(C(F)(F)F)cc1,"inconclusive: 5.01 µM [inhibitor, single point]"
21,O=C(NCCN1CCCCC1)C1CN(S(=O)(=O)c2cccnc2)CC12CCCCC2 (centres undefined),"inconclusive: 2 µM [inhibitor, single point]"
22,O[C@@H]1C[C@@H](c2nc(-c3ccccn3)no2)N(Cc2cc3ccccc3o2)C1,inactive

row,SMILES,Potency
1,CCCN(CCC)CCNC(=O)Cn1cnc2sc(C)c(S(=O)(=O)N3CCN(c4ccccc4OC)CC3)c2c1=O,"inconclusive: 11.2 µM [inhibitor, single point]"
2,N#Cc1cc([N+](=O)[O-])ccc1NC(=O)c1cccn(Cc2cccc(F)c2)c1=O,inactive
3,O=C1Nc2ccccc2O[C@H]2C[C@@H]1N(C(=O)NCc1ccccc1)C2,inactive
4,COc1ccc(CN2CCC3(Cc4ccccc4CNC3=O)C2)cn1 (centres undefined),"inconclusive: 20 µM [inhibitor, single point]"
5,CC(=O)N1CCCC(c2[nH]ccc2C(=O)NCc2ccc3c(c2)OCO3)C1 (centres undefined),inactive
6,Cc1ccc(C(=O)N2CCC(F)(c3nc(-c4ccncc4)no3)CC2)s1,"inconclusive: 17.8 µM [inhibitor, single point]"
7,COc1ccc(Cl)cc1C(=O)N1CCC2(CC1)N(C)C(=O)CS2(=O)=O,inactive
8,Cc1ccc(N2CCN(C(=O)Nc3cn(CC(C)C)c(=O)c4ccccc34)CC2)c(C)c1,"inconclusive: 12.6 µM [inhibitor, single point]"
9,Cc1cccc(-n2ccnc2SCC(=O)Nc2cc(C(F)(F)F)ccc2Cl)c1,active: 3.55 µM
10,CCCCN(C)CC(O)Cn1cc(/C=C/C(=O)c2ccc(OCC)cc2)c2ccccc21 (centres undefined),active: 3.55 µM
11,O=c1cc(CN2CCCC(c3nccn3Cc3ccccc3)C2)[nH]c(=O)[nH]1 (centres undefined),"inconclusive: 17.8 µM [inhibitor, partial curve, poor fit]"
12,CCOCCn1c(=O)n(CC[C@H](O)c2ccccc2)c2cc(C(=O)O)cnc21,inactive
13,Cc1nc(CN(C)Cc2nc(-c3cccc(Cl)c3)oc2C)no1,"inconclusive: 8.91 µM [inhibitor, partial curve]"
14,CCCCC(=O)Nc1cccc(-c2nc3ccccc3s2)c1,inactive
15,CNC(=O)CCn1ncc2cc(OCc3ccccc3-c3ccsc3)ccc21,active: 6.31 µM
16,CCCS(=O)(=O)NCC1Cn2cccc2C(=O)N1Cc1ccccc1 (centres undefined),"inconclusive: 15.8 µM [inhibitor, partial curve, poor fit]"
17,COc1cc(CNCc2nnn3c2CN(Cc2ccccc2C#N)C(=O)CC3)cc(OC)c1,"inconclusive: 11.2 µM [inhibitor, single point]"
18,CCc1ccc(CN(C)C(C(=O)O)c2c(OC)cccc2OC)nc1 (centres undefined),inactive
19,COc1ccc(C(=O)Nc2ccc(-c3noc([C@@H]4CCCN4Cc4cnc5ccccc5c4)n3)cn2)cc1,"inconclusive: 7.94 µM [inhibitor, partial curve, poor fit]"
20,Cc1cc(C(=O)N[C@H](C)c2c(-c3ccc(Cl)cc3)noc2C(=O)O)c(C)o1,"inconclusive: 22.4 µM [inhibitor, single point]"
21,CCOc1ccc(-n2c(SCC(=O)N3CCCc4ccccc43)nc3c([nH]c4ccccc43)c2=O)cc1,"inconclusive: 8.91 µM [inhibitor, single point]"
22,COC(=O)c1ccc2nc(C[C@@H]3C[C@@H](C(C)C)[C@H](CNS(=O)(=O)c4ccccc4)C=C3C)[nH]c2c1,active: 10 µM

# Reference: PubChem BioAssay AID1347417 (National Center for Advancing Translational Sciences (NCATS), 2020)
